Experimental data: the supplement of paper PMC12067093, “Discovery and optimisation of a covalent ligand for TRIM25 and its application to targeted protein ubiquitination” (Chemical Science, 2025)
Of roughly 21,000 targets only a part is listed; those with the largest changes were picked by preference.

Compound: Cc1cc(ccc1-c1ccccc1)C(=O)N1CCCN(CC1)C(=O)CCl [compound 10]
Test: probe-labelled cysteine peptide fold change vs DMSO (competition) (log2 fold change); higher = less target engagement (more negative = stronger competition)
Settings: THP-1, incubation time: 4 h
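Also: competitive profiling in live THP-1 cells: cysteine peptides tagged with an iodoacetamide desthiobiotin (IA-DTB) probe, intensity after compound treatment relative to DMSO-treated cells.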

UniProt Q9H074, sequence (Q9H074 whole entry, looked up): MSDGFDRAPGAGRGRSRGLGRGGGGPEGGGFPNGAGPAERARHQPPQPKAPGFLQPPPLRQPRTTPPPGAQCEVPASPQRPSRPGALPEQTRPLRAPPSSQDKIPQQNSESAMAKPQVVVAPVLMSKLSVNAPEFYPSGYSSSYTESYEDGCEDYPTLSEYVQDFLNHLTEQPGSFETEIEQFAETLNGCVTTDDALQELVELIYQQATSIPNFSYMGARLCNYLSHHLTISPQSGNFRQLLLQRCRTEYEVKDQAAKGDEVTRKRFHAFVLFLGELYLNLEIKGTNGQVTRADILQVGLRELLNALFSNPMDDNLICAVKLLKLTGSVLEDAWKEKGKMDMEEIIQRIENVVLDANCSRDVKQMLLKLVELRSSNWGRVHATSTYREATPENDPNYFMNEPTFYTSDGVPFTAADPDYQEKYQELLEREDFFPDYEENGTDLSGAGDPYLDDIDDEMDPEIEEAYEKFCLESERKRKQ
UniProt Q9UNF0, sequence (Q9UNF0 whole entry, looked up): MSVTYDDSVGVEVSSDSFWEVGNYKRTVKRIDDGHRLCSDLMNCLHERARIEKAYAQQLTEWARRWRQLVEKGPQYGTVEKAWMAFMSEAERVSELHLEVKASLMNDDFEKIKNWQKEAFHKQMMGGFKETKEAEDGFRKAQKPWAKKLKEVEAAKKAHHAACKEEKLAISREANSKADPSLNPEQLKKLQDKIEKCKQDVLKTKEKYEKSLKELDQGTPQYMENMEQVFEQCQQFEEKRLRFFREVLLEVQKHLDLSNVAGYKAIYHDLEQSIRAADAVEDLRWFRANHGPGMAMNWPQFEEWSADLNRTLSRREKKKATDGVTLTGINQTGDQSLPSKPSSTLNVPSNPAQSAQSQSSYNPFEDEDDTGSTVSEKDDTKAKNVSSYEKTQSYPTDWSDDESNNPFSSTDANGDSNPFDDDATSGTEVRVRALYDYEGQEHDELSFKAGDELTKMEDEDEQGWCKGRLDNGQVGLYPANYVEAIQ
UniProt P55160, sequence (P55160 whole entry, looked up): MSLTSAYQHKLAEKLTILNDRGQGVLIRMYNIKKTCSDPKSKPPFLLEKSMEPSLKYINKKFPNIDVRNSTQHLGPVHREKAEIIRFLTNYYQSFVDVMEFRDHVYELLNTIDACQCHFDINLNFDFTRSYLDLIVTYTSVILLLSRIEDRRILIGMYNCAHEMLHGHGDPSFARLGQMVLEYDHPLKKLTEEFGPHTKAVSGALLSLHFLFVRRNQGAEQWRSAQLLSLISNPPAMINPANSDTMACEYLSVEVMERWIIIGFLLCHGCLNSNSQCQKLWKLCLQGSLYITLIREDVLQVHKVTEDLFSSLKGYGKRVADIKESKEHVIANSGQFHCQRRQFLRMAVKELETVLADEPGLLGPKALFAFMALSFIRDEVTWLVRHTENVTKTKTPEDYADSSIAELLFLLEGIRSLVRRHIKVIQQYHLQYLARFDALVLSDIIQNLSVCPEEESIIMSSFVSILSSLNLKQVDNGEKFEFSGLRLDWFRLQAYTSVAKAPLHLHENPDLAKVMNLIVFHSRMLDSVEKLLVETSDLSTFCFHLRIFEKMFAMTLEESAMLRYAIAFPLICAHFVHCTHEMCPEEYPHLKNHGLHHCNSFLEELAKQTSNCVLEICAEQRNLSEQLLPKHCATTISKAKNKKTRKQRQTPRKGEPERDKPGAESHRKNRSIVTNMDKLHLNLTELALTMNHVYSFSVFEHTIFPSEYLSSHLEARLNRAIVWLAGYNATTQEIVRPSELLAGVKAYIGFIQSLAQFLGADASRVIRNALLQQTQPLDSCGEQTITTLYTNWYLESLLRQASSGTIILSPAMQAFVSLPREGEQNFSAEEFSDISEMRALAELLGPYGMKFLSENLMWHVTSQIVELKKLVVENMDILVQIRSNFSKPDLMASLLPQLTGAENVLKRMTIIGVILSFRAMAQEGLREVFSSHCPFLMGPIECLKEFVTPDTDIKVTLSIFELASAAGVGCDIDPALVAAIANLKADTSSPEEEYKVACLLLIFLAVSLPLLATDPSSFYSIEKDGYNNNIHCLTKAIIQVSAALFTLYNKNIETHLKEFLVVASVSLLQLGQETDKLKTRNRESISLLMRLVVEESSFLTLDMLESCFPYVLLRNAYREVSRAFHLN
UniProt Q12769, sequence (Q12769 whole entry, looked up): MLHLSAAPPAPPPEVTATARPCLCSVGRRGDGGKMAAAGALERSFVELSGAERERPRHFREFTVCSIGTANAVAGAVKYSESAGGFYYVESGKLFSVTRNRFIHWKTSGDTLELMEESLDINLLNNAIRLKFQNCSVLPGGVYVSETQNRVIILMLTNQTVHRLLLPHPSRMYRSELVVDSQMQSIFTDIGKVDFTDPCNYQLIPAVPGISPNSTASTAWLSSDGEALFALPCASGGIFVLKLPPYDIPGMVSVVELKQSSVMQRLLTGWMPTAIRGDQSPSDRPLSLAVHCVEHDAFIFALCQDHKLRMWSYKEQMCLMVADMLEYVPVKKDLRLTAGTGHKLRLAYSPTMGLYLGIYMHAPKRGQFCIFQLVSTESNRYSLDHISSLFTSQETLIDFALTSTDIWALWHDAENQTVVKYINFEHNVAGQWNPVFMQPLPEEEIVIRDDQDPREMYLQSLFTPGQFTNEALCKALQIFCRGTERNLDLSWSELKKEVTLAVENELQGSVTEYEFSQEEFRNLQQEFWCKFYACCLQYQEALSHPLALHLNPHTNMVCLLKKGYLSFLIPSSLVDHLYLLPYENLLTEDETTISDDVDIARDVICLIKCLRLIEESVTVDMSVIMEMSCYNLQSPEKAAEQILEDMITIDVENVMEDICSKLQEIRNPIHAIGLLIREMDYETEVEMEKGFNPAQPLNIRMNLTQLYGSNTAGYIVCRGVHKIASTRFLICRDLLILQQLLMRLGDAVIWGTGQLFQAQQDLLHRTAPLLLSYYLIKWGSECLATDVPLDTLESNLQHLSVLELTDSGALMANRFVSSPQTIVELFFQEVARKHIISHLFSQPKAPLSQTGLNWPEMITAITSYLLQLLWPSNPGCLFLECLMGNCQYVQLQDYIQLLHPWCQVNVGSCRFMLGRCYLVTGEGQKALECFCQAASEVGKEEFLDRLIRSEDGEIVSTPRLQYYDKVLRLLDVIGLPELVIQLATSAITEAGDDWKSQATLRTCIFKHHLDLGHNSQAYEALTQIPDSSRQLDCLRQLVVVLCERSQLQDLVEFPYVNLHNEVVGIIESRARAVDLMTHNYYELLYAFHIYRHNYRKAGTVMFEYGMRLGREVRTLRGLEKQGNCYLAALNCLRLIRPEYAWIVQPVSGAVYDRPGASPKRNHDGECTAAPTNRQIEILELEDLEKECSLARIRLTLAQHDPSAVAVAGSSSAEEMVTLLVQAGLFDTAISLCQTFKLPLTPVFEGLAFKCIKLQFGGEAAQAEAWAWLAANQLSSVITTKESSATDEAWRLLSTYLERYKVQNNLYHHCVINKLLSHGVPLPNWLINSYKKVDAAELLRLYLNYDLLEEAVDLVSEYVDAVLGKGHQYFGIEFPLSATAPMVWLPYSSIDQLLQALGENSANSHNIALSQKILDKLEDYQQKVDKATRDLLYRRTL
UniProt Q8NDH3, sequence (Q8NDH3 whole entry, looked up): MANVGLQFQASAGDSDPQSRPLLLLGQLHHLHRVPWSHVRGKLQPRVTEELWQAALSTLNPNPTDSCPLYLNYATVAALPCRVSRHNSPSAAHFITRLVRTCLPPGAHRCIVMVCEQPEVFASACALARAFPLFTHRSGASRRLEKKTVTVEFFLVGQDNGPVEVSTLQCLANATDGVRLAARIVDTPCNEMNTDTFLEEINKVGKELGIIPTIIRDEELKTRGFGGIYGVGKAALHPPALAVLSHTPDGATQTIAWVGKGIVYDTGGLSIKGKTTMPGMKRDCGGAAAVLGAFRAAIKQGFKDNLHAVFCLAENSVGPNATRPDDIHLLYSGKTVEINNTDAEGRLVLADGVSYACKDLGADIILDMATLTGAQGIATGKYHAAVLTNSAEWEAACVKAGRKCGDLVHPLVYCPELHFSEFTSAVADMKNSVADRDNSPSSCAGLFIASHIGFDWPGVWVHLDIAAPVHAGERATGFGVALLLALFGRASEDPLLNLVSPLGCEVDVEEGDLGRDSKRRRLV
UniProt Q5TFE4, sequence (Q5TFE4 whole entry, looked up): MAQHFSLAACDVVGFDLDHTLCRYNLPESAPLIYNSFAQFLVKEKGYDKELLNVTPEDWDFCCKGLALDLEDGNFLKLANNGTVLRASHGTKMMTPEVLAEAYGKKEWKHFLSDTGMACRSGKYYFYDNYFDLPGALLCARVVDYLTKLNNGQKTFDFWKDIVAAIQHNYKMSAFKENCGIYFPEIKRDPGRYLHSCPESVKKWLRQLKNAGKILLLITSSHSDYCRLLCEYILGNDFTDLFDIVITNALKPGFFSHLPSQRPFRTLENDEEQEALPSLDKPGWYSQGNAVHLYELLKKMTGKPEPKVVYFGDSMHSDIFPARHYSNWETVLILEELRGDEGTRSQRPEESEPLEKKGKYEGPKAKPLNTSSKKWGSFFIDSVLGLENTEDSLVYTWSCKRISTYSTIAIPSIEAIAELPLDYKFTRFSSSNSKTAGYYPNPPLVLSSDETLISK
UniProt Q8N5Y8, sequence (Q8N5Y8 whole entry): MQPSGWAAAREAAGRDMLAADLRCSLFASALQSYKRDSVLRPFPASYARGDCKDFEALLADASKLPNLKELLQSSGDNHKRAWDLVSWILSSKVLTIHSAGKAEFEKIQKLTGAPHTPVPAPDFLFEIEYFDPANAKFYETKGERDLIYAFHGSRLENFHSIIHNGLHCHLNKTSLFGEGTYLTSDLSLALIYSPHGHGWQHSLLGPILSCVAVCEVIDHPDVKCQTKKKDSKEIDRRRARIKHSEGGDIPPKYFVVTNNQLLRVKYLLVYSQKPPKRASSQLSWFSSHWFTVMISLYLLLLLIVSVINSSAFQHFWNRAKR
UniProt Q56VL3, sequence (Q56VL3 whole entry, looked up): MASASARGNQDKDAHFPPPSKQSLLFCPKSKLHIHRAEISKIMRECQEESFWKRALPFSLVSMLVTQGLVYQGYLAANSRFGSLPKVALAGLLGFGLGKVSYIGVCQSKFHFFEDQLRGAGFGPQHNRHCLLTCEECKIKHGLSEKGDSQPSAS

Target	probe-labelled cysteine peptide fold change (10 µM)	probe-labelled cysteine peptide fold change (50 µM)
OSBPL1A_Q9BXW6_387_ECDMAK (UniProt Q9BXW6)	-0.806	-2.25
NUP160_Q12769_369_RGQFCIFQLVSTESNR (UniProt Q12769)	0.142	0.732
NT5DC1_Q5TFE4_62+63_ELLNVTPEDWDFCCK (UniProt Q5TFE4)	0.0814	-0.241
PARP10_Q53GL7_1004_YDSAVDCICQPSIFVIFHDTQALPTHLITCEHVPR (UniProt Q53GL7)	-0.486	-1.15
PAIP1_Q9H074_318_ELLNALFSNPMDDNLICAVK (UniProt Q9H074)	0.025	-0.0474
P4HB_P07237_397_NVFVEFYAPWCGHCK (UniProt P07237)	-0.446	-1.32
P4HB_P07237_312_KEECPAVR (UniProt P07237)	-0.0418	0.0208
PARP16_Q8N5Y8_169_LENFHSIIHNGLHCHLNK (UniProt Q8N5Y8)	-0.0878	-0.518
NPEPL1_Q8NDH3_311_DNLHAVFCLAENSVGPNATRPDDIHLLYSGK (UniProt Q8NDH3)	0.19	0.0596
NCKAP1L_P55160_36_TCSDPK (UniProt P55160)	-0.356	-0.267
NDUFAB1_O14561_140_LMCPQEIVDYIADK (UniProt O14561)	0.0668	0.303
NPM3_O75607_79_DECNVVEVVAR (UniProt O75607)	0.189	0.498
PACSIN2_Q9UNF0_38+44_LCSDLMNCLHER (UniProt Q9UNF0)	-0.167	-0.262
OCIAD2_Q56VL3_27_QSLLFCPK (UniProt Q56VL3)	-0.259	-1.11
MYO5B_Q9ULV0_514_LGILDLLDEECK<|>MYO5A_Q9Y4I1_513_LGILDLLDEECK (UniProt Q9Y4I1+Q9ULV0)	-0.00572	0.227
